Data: PubChem BioAssay AID624417 (National Center for Advancing Translational Sciences (NCATS), 2012)
In all, about 410,000 compounds went through this assay and about 6,400 (1.6%) were called active. The shares of active, inactive and inconclusive entries below differ from those in the screen. Calls follow the shape of the dose curve; as a rule, active = well fitted inhibition curve with a large enough effect; inconclusive = small, poorly fitted or top-dose-only effect; inactive = no such curve, though single readings can be large or run the other way. No potency is given beside an inconclusive call; the fits are too rough.

These molecules were tested against Glucagon-like peptide 1 receptor (Homo sapiens) (UniProt P43220) (assay: qHTS of GLP-1 Receptor Inverse Agonists (Inhibition Mode)). Settings: HEK293 GLP-1R CRE-luciferase, luminescence, 24 h, GLP-1R form is constitutively active; activity change, negative = inhibition: at 38.3 µM (top of the series) unless noted.
Chain of UniProt P43220 (P43220 whole entry, looked up): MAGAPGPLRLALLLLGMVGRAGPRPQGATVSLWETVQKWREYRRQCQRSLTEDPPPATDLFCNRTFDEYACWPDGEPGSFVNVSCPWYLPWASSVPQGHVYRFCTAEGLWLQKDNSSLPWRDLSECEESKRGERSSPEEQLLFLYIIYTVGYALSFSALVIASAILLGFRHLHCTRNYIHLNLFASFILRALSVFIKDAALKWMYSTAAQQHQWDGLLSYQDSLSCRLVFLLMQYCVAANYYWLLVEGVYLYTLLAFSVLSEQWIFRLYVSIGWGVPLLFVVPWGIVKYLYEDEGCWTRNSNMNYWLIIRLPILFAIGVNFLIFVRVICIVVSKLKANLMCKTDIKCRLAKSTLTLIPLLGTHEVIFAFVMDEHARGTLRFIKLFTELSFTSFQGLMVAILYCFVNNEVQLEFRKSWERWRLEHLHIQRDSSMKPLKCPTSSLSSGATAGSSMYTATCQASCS
Summary of the method: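 Inverse agonism was detected as reduced cAMP-driven luciferase luminescence after 24 h compound treatment. The cells were HEK293 clones expressing constitutively active human GLP-1R with the reporter. Reporter-only and GPR119 cell lines served as counterscreen controls.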
% is scaled to controls: 0 for no effect and ±100 for the full control effect; potency is read from the fitted curve at half-maximal effect; tags tell the direction and shape of the fitted curve.
Also: nearly all actives have a fitted effect of over 55% in size.

| SMILES | Potency | activity change, negative = inhibition |
| --- | --- | --- |
| COc1ccc(OC)c(-c2nc3ccccc3nc2-c2ccccc2)c1 | inconclusive [inhibitor, partial curve, poor fit] | – |
| Cc1cc(C)cc(C(O)c2ncc(-c3ccccc3C)[nH]2)c1 (stereo not given) | inconclusive [inhibitor, partial curve, poor fit] | – |
| CN(C)C(CNC(=O)c1cc(S(=O)(=O)N(C)c2ccccc2)ccc1Cl)c1ccccc1 (stereo not given) | active: 10 µM | – |
| CN(CC(=O)Nc1ccc(Cl)c(C(F)(F)F)c1)C(=O)C1CCC1 | inconclusive [inhibitor, single point] | – |
| CNc1ccc(-c2cccc([N+](=O)[O-])c2)cn1 | inactive | – |
| Cc1ccc(OCC(=O)Nc2nnc(S(=O)(=O)N3CCCCCC3)s2)cc1 | inconclusive [inhibitor, full curve, poor fit] | – |
| CCN(Cc1ccccc1)c1ccc(/C=N/NC(=S)NC(C)C)cc1 | inconclusive [inhibitor, partial curve, poor fit] | – |
| CCCCNCCOc1ccccc1-c1ccccc1 | inactive | – |
| CCOC(=O)Cc1c(C)nc2c(-c3ccccc3)c[nH]n2c1=O | inactive | – |
| COc1ccc(C)cc1NC(=O)NC1CCN(Cc2ccccc2)CC1 | inconclusive [inhibitor, partial curve, poor fit] | – |
| CCCC(=O)NC(=S)Nc1ccc(N2CCN(C(=O)c3cccs3)CC2)cc1 | inconclusive [inhibitor, single point] | – |
| Cc1ccccc1NC(=O)c1oc2c(c1C)-c1nn(Cc3cccc(Cl)c3)cc1CC2 | inconclusive [inhibitor, partial curve, poor fit] | – |
| COC(=O)C1=C(C)NC2=C(C(=O)CC(c3cccs3)C2)C1c1ccsc1 (stereo not given) | inconclusive [inhibitor, partial curve] | – |
| COC(=O)c1nc(NC(=O)c2ccccc2Cl)n[nH]1 | inactive | – |
| COc1cccc(OC)c1OCCCOc1ccc([N+](=O)[O-])cc1Cl | inconclusive [inhibitor, single point] | – |
| COC(=O)C1CCN(C(=O)COC(=O)c2oc3ccc(OC)cc3c2C)CC1 | inactive | – |
| CCCCNc1nc2ccccc2c2nc(-c3ccccc3)nn12 | inconclusive [inhibitor, single point] | – |
| C#CCn1c(S(=O)(=O)Cc2ccc(OC)cc2)nc(-c2ccccc2)c1-c1ccccc1 | inconclusive [inhibitor, partial curve, poor fit] | – |
| CCCCC(=O)N/N=C/c1ccc(-c2ccc([N+](=O)[O-])cc2)o1 | inactive | – |
| Cc1ccc(Nc2nc(CSc3nnc(-c4cccnc4)n3-c3ccccc3C)cs2)cc1 | inconclusive [inhibitor, single point] | – |
| COc1cc(NS(=O)(=O)c2ccc(N/C=C\C(=O)c3ccc(F)cc3)cc2)nc(OC)n1 | inconclusive [inhibitor, single point] | – |
| COc1ccc(/C=N/NC(=O)c2cccc(NC(=O)c3ccccc3Cl)c2)cc1 | inconclusive [inhibitor, full curve] | – |

| SMILES | Potency | activity change, negative = inhibition |
| --- | --- | --- |
| COC(=O)c1sc(-c2ccc(C(C)(C)C)cc2)cc1NC(=O)/C=C/C(=O)O | inconclusive [inhibitor, full curve] | – |
| CCc1ccc2[nH]c(=O)c(CN(Cc3ccccc3)C(=O)Nc3ccccc3OC)cc2c1 | active: 3.55 µM | – |
| COc1cccc(NC(=O)Nc2nnc(N3CCCCC3C)s2)c1 (stereo not given) | inconclusive [inhibitor, single point] | – |
| N#CC(C#N)=c1ccc2c(c1)N1C3=C(CCCC3)CC3CCCCC31N=2 (stereo not given) | inactive | – |
| CSc1ncc(CN2CCc3c([nH]c4ccccc34)C2c2cccc(C)n2)cn1 (stereo not given) | inactive | – |
| CSC1=N/C(=C\c2ccc(Br)o2)C(=O)S1 | inactive | – |
| CCOC(=O)c1ccccc1NC(=O)CN(c1ccccc1C)S(C)(=O)=O | inconclusive [inhibitor, single point] | – |
| Nc1ccc(C#Cc2ccccc2)cc1 | inactive | – |
| Clc1cc2cccnc2c2ncccc12 | active: 4.47 µM | – |
| Cc1cccc(Cn2c(C)nc3ccc([N+](=O)[O-])cc3c2=O)c1 | inconclusive [inhibitor, partial curve, poor fit] | – |
| COc1cc(CNCCSc2nnnn2C)cc(Cl)c1OCc1ccccc1 | inconclusive [inhibitor, partial curve, poor fit] | – |
| CCCCC(=O)N(C)c1c(CC)nc2c(OCc3ccccc3C)cccn12 | active: 11.2 µM | – |
| O=C(/C=C/c1ccccc1)N1c2ccccc2Sc2ccc(C(F)(F)F)cc21 | inconclusive [inhibitor, single point] | – |
| Cc1cccc(NC(=S)N2CCN(c3ccc(F)cc3)CC2)c1 | inconclusive [inhibitor, single point] | – |
| Cc1ccc(NC(=O)COC(=O)c2cccc(C)c2[N+](=O)[O-])cc1S(=O)(=O)N1CCCCC1 | inconclusive [inhibitor, single point] | – |
| CCOC(=O)C1=C(CNCc2ccccc2Cl)NC(=O)NC1c1cccc([N+](=O)[O-])c1 (stereo not given) | inconclusive [inhibitor, partial curve] | – |
| CC(C)(C)C(=O)/C=C/c1ccc(Oc2ccccc2)cc1 | inconclusive [inhibitor, single point] | – |
| Cc1ccc2cc(C3CC(c4ccco4)=NN3S(=O)(=O)c3ccccc3)c(Cl)nc2c1 (stereo not given) | inconclusive [inhibitor, partial curve, poor fit] | – |
| CCc1c(C)nc2nncn2c1NCc1ccc(Cl)cc1 | inconclusive [inhibitor, full curve] | – |
| Cc1ccc2c(c1)c1c(n2CC(O)CNC(CO)(CO)CO)CCCC1 (stereo not given) | inconclusive [inhibitor, partial curve, poor fit] | – |
| CCOC(=O)c1c(NC(=O)CCC(=O)N(CC)CC)sc2c1CC(C)(C)OC2 | inconclusive [inhibitor, single point] | – |
| CC(C)CNC(=S)Nc1ccc(Oc2ccccc2)cc1 | active: 11.2 µM | – |

| SMILES | Potency | activity change, negative = inhibition |
| --- | --- | --- |
| O=C1CN(C(=O)c2ccccc2[N+](=O)[O-])C(c2ccccc2)c2cc(Br)ccc2N1 (stereo not given) | inconclusive [inhibitor, single point] | – |
| Cc1cc(N2C(=O)C(O)=C(C(=O)c3cc4ccccc4o3)C2c2cccc(Cl)c2)no1 (stereo not given) | inconclusive [inhibitor, single point] | – |
| C=CCc1ccccc1OCCNCCCOC | inactive | – |
| Cc1ccc(CSCC(=O)Nc2cc(S(=O)(=O)N3CCOCC3)ccc2OC(C)C)cc1 | inconclusive [inhibitor, single point] | – |
| COc1cc(C(C(=O)NC2CCCCC2)N(Cc2cccs2)C(=O)Cc2c[nH]c3ccccc23)cc(OC)c1OC (stereo not given) | inconclusive [inhibitor, single point] | – |
| Cc1cc(OCCSc2nnc(-c3cccs3)n2C)ccc1Cl | inconclusive [inhibitor, partial curve, poor fit] | – |
| S=C(c1cn(CCOc2ccccc2)c2ccccc12)N1CCCC1 | inconclusive [inhibitor, partial curve, poor fit] | – |
| CN1CCN(CC(=O)N2c3ccccc3C(C)(c3ccc(Cl)cc3)CC2(C)C)CC1 (stereo not given) | inconclusive [inhibitor, partial curve, poor fit] | – |
| CC(Oc1cccc(Cl)c1)C(=O)Nc1ccccc1C(=O)N1CCCCC1 (stereo not given) | inconclusive [inhibitor, single point] | – |
| O=C(NNc1ccccc1[N+](=O)[O-])Nc1cccc(Cl)c1 | inconclusive [inhibitor, partial curve, poor fit] | – |
| COc1ccc(S(=O)(=O)N2CCN(C(=O)CCNC(=O)c3ccccc3Cl)CC2)cc1 | inactive | – |
| CCCN1C(=O)/C(=N\OCC(=O)Nc2ccc(C(C)C)cc2)c2ccccc21 | inconclusive [inhibitor, partial curve, poor fit] | – |
| NC(=O)CC(NC(=O)c1ccc(Br)cc1)c1ccc(N2CCC(Cc3ccccc3)CC2)c([N+](=O)[O-])c1 (stereo not given) | inconclusive [inhibitor, partial curve] | – |
| Cc1c(Br)c(=O)oc2c(Br)c(O)ccc12 | – | inactive: -8.16% [at 0.307 µM] |
| COc1cccc(NC(=O)CN(C)C(=O)c2c(C)nn(Cc3ccc(C)cc3)c2Cl)c1 | inconclusive [inhibitor, single point] | – |
| COc1ccc(C(NC(=O)c2c(F)c(F)c(F)c(F)c2F)c2ccccc2)cc1 (stereo not given) | inconclusive [inhibitor, single point] | – |
| O=C(O)CCCCCN1C(=O)C(O)=C(C(=O)/C=C/c2ccccc2)C1c1ccccc1[N+](=O)[O-] (stereo not given) | inconclusive [inhibitor, partial curve, poor fit] | – |
| Cc1ccc(C)c(/C=N/n2cc(-c3ccccc3)[nH]c2=S)c1 | inconclusive [inhibitor, partial curve, poor fit] | – |
| CCC(C(=O)Nc1ccccc1-c1ccccc1)c1ccccc1 (stereo not given) | active: 7.94 µM | – |
| COc1ccccc1/C=C/C=N/n1c(-c2cc(C)[nH]n2)n[nH]c1=S | inactive | – |
| Cn1nc(C(F)(F)F)c(-c2cccc(C(F)(F)F)c2)c1NC(=O)c1ccco1 | inconclusive [inhibitor, partial curve, poor fit] | – |
